Measurements from the supplement of paper PMC9446081.
Screen size: about 39,000 compounds; about 220 (0.56%) showed activity. This is one part of the list.

tested on: Escherichia coli K-12 BW25113; experiment: relative growth (OD600 normalised to plate interquartile mean) (fraction); higher = less growth inhibition, active = 0.2 or less; conditions: 50 µM; LB; incubation time: overnight (16-24 h)
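Note: static incubation at 37 °C against the wild-type strain, values averaged over two biological replicates.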

Structure (SMILES) | relative growth
COc1ccc(NC(=O)N(C)C[C@H]2OCCCC[C@@H](C)Oc3ccc(NC(=O)Nc4ccc5c(c4)OCO5)cc3C(=O)N([C@H](C)CO)C[C@@H]2C)cc1 | inactive: 1
Cn1nnnc1NCc1ccccc1 | inactive: 1
C[C@@H]1CN([C@@H](C)CO)C(=O)c2cc(NS(=O)(=O)c3ccccc3)ccc2O[C@@H](C)CCCCO[C@@H]1CN(C)C(=O)C1CCCCC1 | inactive: 1.01
NC(=O)c1cc[n+](CC2=C(C(=O)O)N3C(=O)[C@@H](NC(=O)Cc4cccs4)[C@H]3SC2)cc1 | inactive: 1.04
CC(=O)OC1CCC2(C)C(CC(OC(C)=O)C3(C)C4=CC(=O)OC(c5ccoc5)C4(C)CCC23)C1(C)C (stereo not drawn) [3alpha-ACETOXYDIHYDRODEOXYGEDUNIN] | inactive: 1.02
CCOC(=O)N(C)C[C@@H]1OCc2cn(nn2)CCCC(=O)N([C@@H](C)CO)C[C@H]1C | inactive: 0.987
C[C@H]1CN([C@@H](C)CO)C(=O)c2c(c3ccccc3n2C)-c2ccccc2CO[C@@H]1CN(C)C(=O)Nc1ccc2c(c1)OCO2 | inactive: 0.981
Cc1ccc(CSc2ncc(C(F)(F)F)cc2Cl)cc1 | inactive: 0.932
C[C@@H]1CN([C@H](C)CO)C(=O)Cc2cc(NS(C)(=O)=O)ccc2O[C@@H]1CN(C)C(=O)Nc1ccc2c(c1)OCO2 | inactive: 0.979
CC(S)C(=O)NCC(=O)O (configuration not stated) | inactive: 0.906
Cc1ccc(C(=N)N)n1C | inactive: 1.01
C[C@H](O)C#Cc1ccc2c(c1)O[C@H](CN(C)C(=O)C1CCCCC1)[C@@H](C)CN([C@H](C)CO)S2(=O)=O | inactive: 0.98
C[C@@H]1CN([C@@H](C)CO)C(=O)c2cc(N(C)C)ccc2O[C@@H](C)CCCCO[C@@H]1CN(C)Cc1ccc(C(=O)Nc2ccccc2N)cc1 | inactive: 0.992
C[C@@H]1CCCCO[C@@H](CN(C)Cc2ccc(C(=O)O)cc2)[C@H](C)CN([C@H](C)CO)C(=O)c2cc(NC(=O)c3ccccc3)ccc2O1 | inactive: 0.977
CC[C@@H](N)c1nc(C)c(C)s1 | inactive: 1.02
C[C@@H]1CN([C@H](C)CO)C(=O)c2cc(N(C)C)ccc2O[C@H]1CN(C)S(C)(=O)=O | inactive: 0.982
Nc1ncc2[nH]cnc2n1 | inactive: 0.996
C[C@H]1CN([C@@H](C)CO)C(=O)c2cccc(NC(=O)C3CCOCC3)c2O[C@H]1CN(C)Cc1ccc(C(=O)O)cc1 | inactive: 0.972
C[C@H]1CN([C@@H](C)CO)C(=O)c2cc(NC(=O)Nc3ccccc3)ccc2O[C@H]1CN(C)Cc1ccc(-c2ccccc2)cc1 | inactive: 1.02
C[C@H]1CN([C@@H](C)CO)C(=O)c2cc(NC(=O)Nc3ccc(C(F)(F)F)cc3)ccc2O[C@@H]1CN(C)C(=O)Nc1ccc2c(c1)OCO2 | inactive: 1.01
COc1ccc(S(=O)(=O)N(C)C[C@@H]2OCCCC[C@H](C)Oc3ccc(NC(=O)Nc4cccc5ccccc45)cc3C(=O)N([C@H](C)CO)C[C@H]2C)cc1 | inactive: 0.966

Structure (SMILES) | relative growth
C[C@H]1CN([C@@H](C)CO)C(=O)c2cc(NC(=O)NC3CCCCC3)ccc2O[C@@H]1CN(C)S(C)(=O)=O | inactive: 0.956
C=CCOC(=O)N(C)C[C@@H]1OCCCC[C@H](C)Oc2ccc(NC(=O)Nc3ccccc3)cc2C(=O)N([C@@H](C)CO)C[C@H]1C | inactive: 0.982
O=C(C[C@H]1C[C@H]2c3cc(NS(=O)(=O)c4ccc(F)cc4)ccc3O[C@H]2[C@@H](CO)O1)NCCN1CCCCC1 | inactive: 0.99
C[C@@H]1CN([C@H](C)CO)C(=O)Cc2cc(NC(=O)Nc3cccc4ccccc34)ccc2O[C@@H]1CN(C)C(=O)Nc1cccc2ccccc12 | inactive: 1.03
CC(C)N1CC=C[C@@]23O[C@@H]4C=CCCOC(=O)[C@@H]4[C@H]2C(=O)N([C@@H](C)CO)[C@@H]3C1=O | inactive: 1.02
CC[N+](CC)(CC(=O)Nc1c(C)cccc1C)Cc1ccccc1.O=C([O-])c1ccccc1 | inactive: 1.01
C[C@@H](O)C#Cc1ccc2c(c1)O[C@@H](CN(C)C(=O)c1ccncc1)[C@@H](C)CN([C@@H](C)CO)S2(=O)=O | inactive: 1.01
CO[C@H]1CN(C)C(=O)c2cc(NS(C)(=O)=O)ccc2OC[C@@H](C)N(C(=O)c2ccc3c(c2)OCO3)C[C@H]1C | inactive: 0.986
C[C@@H]1CCCCO[C@H](CN(C)C(=O)Nc2ccc3c(c2)OCO3)[C@H](C)CN([C@H](C)CO)C(=O)c2cc(NC(=O)Nc3ccc(C(F)(F)F)cc3)ccc2O1 | inactive: 0.996
COc1ccc2c3c([nH]c2c1)[C@@H](CO)N(C[C@]13CCN(CC1)C(=O)Nc1ccc2c(c1)OCO2)C(=O)Nc1ccc(cc1)F | inactive: 1
COc1ccc(NC(=O)N(C)C[C@H]2Oc3c(NC(=O)c4cc(C)nn4C)cccc3C(=O)N([C@H](C)CO)C[C@@H]2C)cc1 | inactive: 1
COCC#Cc1cnc2c(c1)C(=O)N([C@H](C)CO)C[C@H](C)[C@@H](CN(C)C(=O)CCN1CCCCC1)O2 | inactive: 1.01
NCCCC[C@@H](N)C(=O)N[C@@H](Cc1c[nH]c2ccccc12)C(=O)N[C@@H](CCCCN)C(=O)O | inactive: 0.994
COc1ccc(S(=O)(=O)Nc2ccc3c(c2)C(=O)N([C@H](C)CO)C[C@H](C)[C@@H](CN(C)C(=O)Nc2ccc4c(c2)OCO4)OCCCC[C@H](C)O3)cc1 | inactive: 1.01
C[C@@H]1CCCCO[C@@H](CN(C)C(=O)c2ccccc2)[C@@H](C)CN([C@H](C)CO)C(=O)c2cc(NS(=O)(=O)c3ccc(Cl)cc3)ccc2O1 | inactive: 0.982
C[C@@H](O)[C@@H](O)[C@@H](O)C/C=N/NC(=O)c1ccccn1 | inactive: 0.996
CC(C)NC(=O)Nc1ccc2c(c1)C(=O)N([C@H](C)CO)C[C@@H](C)[C@H](CN(C)C(=O)Nc1ccc(F)cc1)OCCCC[C@@H](C)O2 | inactive: 0.965
CO[C@@]1(C2=NCCN2)COc2ccccc2O1 | inactive: 0.988
NC[C@H](c1ccco1)N1CCCCCC1 | inactive: 0.992
C=CC(C)(O)CCC1C(=C)CC(OC(C)=O)C2C(C)(C)CCCC12C (configuration not stated) | inactive: 0.72
Cc1noc(C)c1NC(=O)N(C)C[C@H]1OCCCC[C@@H](C)Oc2ccc(NC(=O)c3ccccc3)cc2C(=O)N([C@H](C)CO)C[C@H]1C | inactive: 0.994

Structure (SMILES) | relative growth
Cn1cnc(S(=O)(=O)N[C@H]2C=C[C@@H](CC(=O)Nc3ccccc3)O[C@H]2CO)c1 | inactive: 0.979
COc1ccc(S(=O)(=O)Nc2ccc3c(c2)C(=O)N([C@@H](C)CO)C[C@@H](C)[C@H](CN(C)C(=O)NC(C)C)O3)cc1 | inactive: 0.982
COc1ccc(NC(=O)N(C)C[C@@H]2Oc3c(NS(C)(=O)=O)cccc3C(=O)N([C@H](C)CO)C[C@@H]2C)cc1 | inactive: 0.99
C[C@H]1CN([C@@H](C)CO)C(=O)c2cc(NS(=O)(=O)c3cccs3)ccc2O[C@@H]1CN(C)S(=O)(=O)c1ccc(F)cc1 | inactive: 0.898
COc1ccc([Si](C)(C)[C@@H]2[C@@H](CC(=O)N3Cc4ccccc4C[C@H]3CO)O[C@]3(C(=O)N(C)c4c(Br)cc(C)cc43)[C@H]2C)cc1 | inactive: 1
C[C@H]1CN([C@@H](C)CO)C(=O)c2cccc(NC(=O)Nc3ccc4c(c3)OCO4)c2O[C@@H]1CN(C)Cc1ccc(-c2ccccc2)cc1 | inactive: 0.993
Cc1ccc(S(=O)(=O)N(C)C[C@H]2Oc3ccc(NC(=O)C4CC4)cc3C(=O)N([C@H](C)CO)C[C@@H]2C)cc1 | inactive: 1
O=C(Cc1ccncc1)Nc1ccc2c(c1)[C@H]1C[C@@H](CC(=O)N3CCc4ccccc4C3)O[C@H](CO)[C@H]1O2 | inactive: 1.02
C[C@@H]1CCCCO[C@H](CN(C)C(=O)Nc2cccc3ccccc23)[C@H](C)CN([C@@H](C)CO)C(=O)c2cc(NC(=O)Cc3ccccc3)ccc2O1 | inactive: 1
COc1ccc(S(=O)(=O)Nc2ccc3c(c2)CC(=O)N([C@@H](C)CO)C[C@H](C)[C@H](CN(C)S(=O)(=O)c2ccc(C)cc2)O3)cc1 | inactive: 1.03
Cn1nnnc1SCC(=O)Nc1ncccn1 | inactive: 0.871
COc1ccc(NC(=O)Nc2cccc3c2O[C@@H](CN(C)S(=O)(=O)c2cn(C)cn2)[C@H](C)CN([C@H](C)CO)C3=O)cc1 | inactive: 0.978
C[C@@H]1CN([C@@H](C)CO)C(=O)c2cccc(NC(=O)c3nc4ccccc4s3)c2O[C@@H]1CN(C)CC1CCCCC1 | inactive: 1.02
C[C@@H]1CN([C@@H](C)CO)C(=O)c2cccc(NS(=O)(=O)c3ccc(F)cc3)c2O[C@H]1CN(C)S(=O)(=O)c1ccccc1 | inactive: 1.03
O=C(CCc1ccc(O)cc1)c1c(O)cc(O)cc1O | inactive: 1.14
Cc1noc(C)c1S(=O)(=O)Nc1ccc2c(c1)C(=O)N([C@@H](C)CO)C[C@H](C)[C@H](CN(C)CC1CCCCC1)OCCCC[C@H](C)O2 | inactive: 1.04
O=C(C[C@@H]1CC[C@H]2[C@@H](COC[C@@H](O)CN2S(=O)(=O)c2cccc(Cl)c2)O1)NCCCN1CCOCC1 | inactive: 0.999
CC(C)NC(=O)N(C)C[C@@H]1Oc2ccc(NC(=O)C3CCCCC3)cc2CC(=O)N([C@H](C)CO)C[C@@H]1C | inactive: 0.969
C[C@@H]1CCCCO[C@H](CN(C)C(=O)Nc2ccccc2)[C@@H](C)CN([C@H](C)CO)C(=O)c2cc(NS(=O)(=O)c3ccc(F)cc3)ccc2O1 | inactive: 1
C[C@@H]1CN([C@@H](C)CO)C(=O)c2cc(NS(=O)(=O)c3ccccc3)ccc2O[C@@H](C)CCCCO[C@@H]1CN(C)C(=O)Nc1ccc2c(c1)OCO2 | inactive: 0.989
